Data on 20 molecules can be found in publication PMC9911399, “Two distinct binding modes provide the RNA-binding protein RbFox with extraordinary sequence specificity”.

Positions count from the first letter of the chain named. The list shows a part of the results.

The chains are these.
T1: RBFOX1 RRM (Homo sapiens, UniProt Q9NWB1 109-208)
T1 sequence: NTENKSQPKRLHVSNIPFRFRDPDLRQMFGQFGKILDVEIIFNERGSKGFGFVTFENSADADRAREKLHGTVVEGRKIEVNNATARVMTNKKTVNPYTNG

B1: GGCCGCG (DNA:RNA)
RNA: GGGAGACCGGAAUUCAGAUUGUCCGGCCGCGUUAAAUCCCGUCGUAGCCACCA
DNA 1: CAATCTGAATTCCGGTCTCCC
DNA 2: TGGTGGCTACGACGGGATT
B2: CAGCUCC (DNA:RNA)
RNA: B1 RNA with G25C, G26A, C27G, G29U, G31C
DNA 1: CAATCTGAATTCCGGTCTCCC
DNA 2: TGGTGGCTACGACGGGATT
B3: CAUAUCU (DNA:RNA)
RNA: B1 RNA with G25C, G26A, C27U, C28A, G29U, G31U
DNA 1: CAATCTGAATTCCGGTCTCCC
DNA 2: TGGTGGCTACGACGGGATT
B4: UUCUCUA (DNA:RNA)
RNA: B1 RNA with G25U, G26U, C28U, G29C, C30U, G31A
DNA 1: CAATCTGAATTCCGGTCTCCC
DNA 2: TGGTGGCTACGACGGGATT
B5: UUUGUAG (DNA:RNA)
RNA: B1 RNA with G25U, G26U, C27U, C28G, G29U, C30A
DNA 1: CAATCTGAATTCCGGTCTCCC
DNA 2: TGGTGGCTACGACGGGATT
B6: CCCUGAA (DNA:RNA)
RNA: B1 RNA with G25C, G26C, C28U, C30A, G31A
DNA 1: CAATCTGAATTCCGGTCTCCC
DNA 2: TGGTGGCTACGACGGGATT
B7: UCACGAC (DNA:RNA)
RNA: B1 RNA with G25U, G26C, C27A, C30A, G31C
DNA 1: CAATCTGAATTCCGGTCTCCC
DNA 2: TGGTGGCTACGACGGGATT
B8: CUCAAGA (DNA:RNA)
RNA: B1 RNA with G25C, G26U, C28A, G29A, C30G, G31A
DNA 1: CAATCTGAATTCCGGTCTCCC
DNA 2: TGGTGGCTACGACGGGATT
B9: CCCGUUC (DNA:RNA)
RNA: B1 RNA with G25C, G26C, C28G, G29U, C30U, G31C
DNA 1: CAATCTGAATTCCGGTCTCCC
DNA 2: TGGTGGCTACGACGGGATT
B10: GAGAGGA (DNA:RNA)
RNA: B1 RNA with G26A, C27G, C28A, C30G, G31A
DNA 1: CAATCTGAATTCCGGTCTCCC
DNA 2: TGGTGGCTACGACGGGATT
B11: UACUGGG (DNA:RNA)
RNA: B1 RNA with G25U, G26A, C28U, C30G
DNA 1: CAATCTGAATTCCGGTCTCCC
DNA 2: TGGTGGCTACGACGGGATT
B12: UCACGGG (DNA:RNA)
RNA: B1 RNA with G25U, G26C, C27A, C30G
DNA 1: CAATCTGAATTCCGGTCTCCC
DNA 2: TGGTGGCTACGACGGGATT
B13: CAGGCAU (DNA:RNA)
RNA: GGGAGACCGGAAUUCAGAUUGUCCCAGGCAUUUAAAUCCCGUCGUAGCCACCA
DNA 1: CAATCTGAATTCCGGTCTCCC
DNA 2: TGGTGGCTACGACGGGATT
B14: UUAUCGG (DNA:RNA)
RNA: B13 RNA with C25U, A26U, G27A, G28U, A30G, U31G
DNA 1: CAATCTGAATTCCGGTCTCCC
DNA 2: TGGTGGCTACGACGGGATT
B15: AUCCACU (DNA:RNA)
RNA: B1 RNA with G25A, G26U, G29A, G31U
DNA 1: CAATCTGAATTCCGGTCTCCC
DNA 2: TGGTGGCTACGACGGGATT
B16: UGACUAG (DNA:RNA)
RNA: B1 RNA with G25U, C27A, G29U, C30A
DNA 1: CAATCTGAATTCCGGTCTCCC
DNA 2: TGGTGGCTACGACGGGATT
B17: AAGGAAC (DNA:RNA)
RNA: B13 RNA with C25A, C29A, U31C
DNA 1: CAATCTGAATTCCGGTCTCCC
DNA 2: TGGTGGCTACGACGGGATT
B18: GUAGCCA (DNA:RNA)
RNA: B13 RNA with C25G, A26U, G27A, A30C, U31A
DNA 1: CAATCTGAATTCCGGTCTCCC
DNA 2: TGGTGGCTACGACGGGATT
B19: GUUAUGA (DNA:RNA)
RNA: B1 RNA with G26U, C27U, C28A, G29U, C30G, G31A
DNA 1: CAATCTGAATTCCGGTCTCCC
DNA 2: TGGTGGCTACGACGGGATT
B20: CUCGGUG (DNA:RNA)
RNA: B1 RNA with G25C, G26U, C28G, C30U
DNA 1: CAATCTGAATTCCGGTCTCCC
DNA 2: TGGTGGCTACGACGGGATT

This assay has as its target T1, RBFOX1 RRM. The assay can be described thus: EMSA; HiTS-Eq, 1 nM pool, 10 min; buffer printed only for the single-RNA assays: 10 mM Tris pH 7.5, 150 mM NaCl, 3.4 mM EDTA, 0.001% NP-40, 30 C. As to conditions: tags: His6 N-terminal (pET28a); label: 5' 32P. The essentials: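 Purified wild-type or mutant RbFox RRM at increasing concentrations was equilibrated with 1 nM of 5′-radiolabelled RNA carrying 7 randomized nucleotides for 10 min in 50 µL. Unbound RNA was separated by 8% native PAGE and sequenced. Relative association constants came from read-count changes of each RNA species compared with the control reaction, normalised to the cognate motif.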
On the technique in general: In EMSA bound probe runs differently from free probe, usually more slowly.
For the molecule B1, the binding signal is 0.0132 KA relative to UGCAUGU.

Turning to B2, the binding signal is 0.00767 KA relative to UGCAUGU. With B3 the figure was 0.00324 KA relative to UGCAUGU. With B4 the figure was 0.00444 KA relative to UGCAUGU.

Consider B5, for which the binding signal was 0.0166 KA relative to UGCAUGU. Consider B6, for which the binding signal was 0.00426 KA relative to UGCAUGU. Take B7: the binding signal is 0.00315 KA relative to UGCAUGU. For the molecule B8, the binding signal was 0.00602 KA relative to UGCAUGU. For B9, the binding signal is 0.0176 KA relative to UGCAUGU. With B10 the figure was 0.00431 KA relative to UGCAUGU; with B11, 0.00793 KA relative to UGCAUGU. On to B12, for which the binding signal is 0.00744 KA relative to UGCAUGU.

Turning to B13, the binding signal was 0.0133 KA relative to UGCAUGU. With B14 the figure was 0.0105 KA relative to UGCAUGU; with B15, 0.000326 KA relative to UGCAUGU; with B16, 0.0169 KA relative to UGCAUGU. Consider B17, for which the binding signal is 0.0107 KA relative to UGCAUGU.

Consider B18, for which the binding signal was 0.0047 KA relative to UGCAUGU.

Turning to B19, the binding signal was 0.0144 KA relative to UGCAUGU. Turning to B20, the binding signal is 0.0185 KA relative to UGCAUGU.
